Source: PubChem BioAssay AID1508624 (National Center for Advancing Translational Sciences (NCATS), 2021)
Screen size: about 48,000 compounds; about 120 (0.25%) were called active. About 4% were inconclusive and are not listed. Calls follow the shape of the dose curve; as a rule, active = well fitted activation curve with a large enough effect; inconclusive = small, poorly fitted or top-dose-only effect, or another doubt; inactive = no such curve, though single readings can be large or run the other way. Some of the results follow.

Test: Primary qHTS for Identification of Small Molecule Activators of Huntingtin-Antisense Promoter Activity; also: nearly all actives have a fitted effect of over 55% in size
Conditions: HEK293 HTT-AS promoter firefly luciferase reporter (activity 0% = vehicle and -100% = no light), 24 h; series mostly up to 57.5 µM; activity change, positive = activation: at the top concentration
Outline: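 Firefly luciferase signal from promoter-reporter HEK293 cells was scaled between vehicle (0%) and zero RLU (-100%). Compounds were tested at final concentrations of up to 57.5 uM over 24 h at 37 degrees C. PTC124 at 50 uM final served as control inhibitor.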

Activity change, positive = activation, inactive:
O=C(NCc1ccc(Cl)cc1)c1ccc2c(c1)nnn2C1CCCC1 -2.28%
COc1ccc(C)cc1NC(=O)CSc1nc(=O)n(Cc2ccco2)c2c1CCC2 -28%
Cc1ccc(-n2cc(-c3ccccc3)c3c(N4CCC(C)CC4)ncnc32)cc1Cl -0.431%
Clc1cccc(CNCCCSc2nnnn2-c2ccccc2)c1 -7.54%
COC(=O)c1scc(-c2ccc(C)cc2)c1S(=O)(=O)Nc1cc(C)c(Cl)cc1OC -39.3%
Cc1cccc(N2CCN(C(=O)CCS(=O)(=O)c3ccc4c(c3)CC(=O)N4C)CC2C)c1 (stereo unspecified) -10.5%
CC(=O)N1CCN(c2csc3ccc(Cl)cc3c2=O)CC1 18.9%
Cc1ccc(NS(=O)(=O)c2ccc3c(c2)n(C)c(=O)n3C)c(C)c1 -14.7%
Cc1cccc(C(c2sc3nc(-c4ccco4)nn3c2O)N2CCOCC2)c1 (stereo unspecified) -8.57%
CCCCOC(=O)c1ccc(NC(=O)c2ccc3c(c2)CCN3S(C)(=O)=O)cc1 -32.3%
O=C(NCCc1cccs1)c1ccc(Cn2c(SCc3cccc(F)c3)nc3cccnc32)cc1 -7.52%
CCNc1nc2c(c(=O)n(C)c(=O)n2C)n1Cc1ccc(F)cc1 -18.8%
Cc1ccccc1S(=O)Cc1ccc(C(=O)NCc2ccccc2Cl)o1 (stereo unspecified) -19.7%
O=C(Cn1cc(C(=O)c2ccco2)c2ccccc21)Nc1ccccc1C(F)(F)F -31.7%
Cc1ccc(CSC2=NC(C)(C)Nc3ccccc32)c(C)c1 -21.2%
COc1ccc(-c2csc3ncnc(Nc4ccccc4)c23)cc1 15.6%
Fc1cccc(CN2CCc3nc(Nc4ccc5c(c4)OCCO5)ncc3C2)c1F 8.49%
CCOC(=O)c1c(-c2ccccc2)oc2ccc(OCc3ccccc3Br)cc12 -3.89%
CCOc1ccccc1NC(=O)Cn1c(=O)oc2ccccc21 -11.5%
COc1ccc(-c2noc(N3CCC(C(=O)N4CCN(c5cccc(OC)c5)CC4)CC3)n2)cc1 -84.4%
COc1ccc(NC(=O)Cn2cc(C(=O)c3ccc(C)c(C)c3)c(=O)c3cc(OC)ccc32)cc1 -22.2%
CSc1ncc(Cl)c(C(=O)Nc2c(C(=O)c3ccc(Cl)cc3)oc3ccccc23)n1 3.8%
Cc1ccc(-n2ncc(C(=O)N3CCN(c4ccccc4F)CC3)c2C2CCN(C(=O)OC(C)(C)C)CC2)cc1C -10.1%
Cc1cccc(OC(=O)CSc2nnc(-c3cccs3)o2)c1C -3.57%
CCOC(=O)c1c(S(=O)(=O)N2CCCC(C(=O)Nc3cccc(CC)c3)C2)c(C)n(CC)c1C (stereo unspecified) -12.5%
O=C(NCCO[N+](=O)[O-])c1cccnc1
Cc1c(NC(=O)Cc2ccc(Cl)cc2)cccc1-c1nc2cccnc2s1 -9.5%
CCOC(=O)c1c(C)[nH]c(C)c1S(=O)(=O)NCC(=O)Nc1cccc(Cl)c1 0.0687%
Cc1cccc(CNC(=O)Cn2nc(C)c3nn(-c4ccc(Cl)cc4)c(C)c3c2=O)c1 -22.8%
Cc1c(CNC2CCCCCC2)c(C(=O)O)c(C)n1Cc1cccc(Cl)c1 -10%
Cc1ccc(Cl)c(Nc2ccccc2C(=O)O)c1Cl -9.21%
O=C(CSc1nc(Nc2ccccc2)c2ccccc2n1)c1ccc(Cl)cc1 -41.5%
Cc1cc(C)cc(NC(=O)NCc2c(-n3cccc3)sc3c2CCCC3)c1 -14.1%
CCOC(=O)c1ccc(N2C(=O)c3n[nH]c(-c4ccco4)c3C2c2ccccc2OC)cc1 (stereo unspecified) -63.5%
COc1ccc(N(C)S(=O)(=O)c2ccc3c(c2)CCN3C(=O)CCC(=O)O)cc1 -23.5%
Cc1ccc(NC(=O)Cn2c(=O)n(Cc3ccccc3)c(=O)c3c(C)c(C(=O)N(C)C)sc32)c(C)c1 -15.1%
COc1ccc(NC(=O)c2ccco2)cc1NC(=O)c1ccccc1[N+](=O)[O-] -5.83%
CCN1CCN(C(=O)N[C@@H](C(=O)N[C@@H]2C(=O)N3C(C(=O)O)=C(CSc4nnnn4C)CS[C@H]23)c2ccc(O)cc2)C(=O)C1=O -1.97%
CC(C)(Cc1ccc2ccccc2c1)NC[C@@H](O)COc1cccc(Cl)c1C#N 4.26%
O=C1Nc2ccc(I)cc2C1=Cc1cc(Br)c(O)c(Br)c1 1.03%
CCc1cccc(C)c1Nc1nn2c(=O)c3ccccc3nc2s1 -4.66%
COc1cc(C2C=C(C(=O)O)Nc3ncnn32)ccc1O (stereo unspecified) 2.6%
CCOc1ccc2c(c1)c(=O)c(C(=O)c1ccc(CC)cc1)cn2CC(=O)Nc1ccc2c(c1)OCCO2 -7.77%
COc1cccc(NC(=O)Cn2c(=O)n(CCC(=O)NCc3ccccc3OC)c(=O)c3ccccc32)c1 -12.2%
COc1ccc(Cl)cc1NC(=O)Cn1c(=O)n2nc(-c3ccccc3)nc2c2ccccc21 -15.9%
COc1ccc(C)c2sc(N(Cc3cccnc3)C(=O)c3cccs3)nc12 -22.2%
Cc1ccc(NC(=O)Cn2cc3c(n2)CCCC3)cc1Cl -9.88%
CCN1CCc2c(sc(-n3cccc3)c2C(C)NC(=O)Nc2ccc(C(=O)OC)cc2)C1 (stereo unspecified) -4.28%
COc1ccc(CNS(=O)(=O)c2ccc(-c3cc(C(F)(F)F)on3)s2)cc1OC -63.7%
COc1ccc(CNC(=O)c2nn(C)c3c2CSc2ccccc2-3)cc1 -4.43%
COc1ccc(-c2csc(-c3c(N)c(C(=O)c4ccc(OC)c(OC)c4)n4ccccc34)n2)cc1 7.61%
O=C(Nc1cccc(F)c1)c1cnc2sc(N3CCCC3)nn2c1=O -21.1%
COc1cccc(NS(=O)(=O)c2ccc3[nH]cc(C(=O)NC(C)c4ccccc4)c(=O)c3c2)c1 (stereo unspecified) -26.2%
CCOC(=O)C1CCN(Cc2cn3c(-c4ccc(OC)cc4)nnc3s2)CC1 -17.6%
Cc1cccc(NC(=O)c2cn(-c3ccccc3)nc2-c2ccccc2)c1C -45.6%
Cc1ccccc1CN1CCCN(CC(=O)Nc2ccc(F)cc2)S1(=O)=O -20.3%
Cc1cc(Nc2ncnc3ccc(-c4ccc(CNCCS(C)(=O)=O)o4)cc23)ccc1Oc1ccn2ncnc2c1 -43.8%
Cc1ccc(NC(=O)Cn2c(=O)n(Cc3ccc4c(c3)OCO4)c(=O)c3oc4ccccc4c32)cc1C -15%
CCOC(=O)c1c(C)oc2nc(C)nc(NCCc3ccc(Cl)cc3)c12 -18.9%
CC(C)c1ccc(NC(=O)Cn2nnc(C(=O)NCc3ccc4c(c3)OCO4)c2N)cc1 1.15%
CO[C@@]12[C@H](COC(N)=O)C3=C(C(=O)C(C)=C(N)C3=O)N1C[C@@H]1N[C@@H]12
